Among all 16,000 compounds or so, about 40 (0.2%) were called active. About 1% were inconclusive and are not listed. Calls come from the whole dose curve; as a rule, active = well fitted activation curve with a large enough effect; inconclusive = small, poorly fitted or top-dose-only effect, or another doubt; inactive = no such curve, though single readings can be large or run the other way. The list shows a part of the results. Non-standard residues stand in square brackets, D forms with d. Residues, ends and D or L forms follow the SMILES beside them. Sar = CNCC(=O)O
Molecular target: Rap guanine nucleotide exchange factor 4 (Homo sapiens) (UniProt Q8WZA2)
Assay: Validation qHTS for agonist of cAMP-regulated guanine nucleotide exchange factor 4 (EPAC2);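 note: exchange makes BODIPY-GDP fluorescence drop when released from Rap1B; series mostly up to about 150 µM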
Details: EPAC2 Rap1B BODIPY-GDP exchange, fluorescence; activation: stronger effect = higher value
Outline: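 Fluorescent exchange assay: 100 nM EPAC2 with 250 nM RAP1B-BODIPY-GDP and 50 uM GDP; compound added, 5 min at room temperature, then read (ex 480/em 540 nm) every 5 min for 30 min. Normalized to 6.5 mM cAMP agonist control.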
% is set by controls: 0 for no effect and ±100 for the full control effect.

UniProt Q8WZA2, sequence (Q8WZA2 whole entry, looked up): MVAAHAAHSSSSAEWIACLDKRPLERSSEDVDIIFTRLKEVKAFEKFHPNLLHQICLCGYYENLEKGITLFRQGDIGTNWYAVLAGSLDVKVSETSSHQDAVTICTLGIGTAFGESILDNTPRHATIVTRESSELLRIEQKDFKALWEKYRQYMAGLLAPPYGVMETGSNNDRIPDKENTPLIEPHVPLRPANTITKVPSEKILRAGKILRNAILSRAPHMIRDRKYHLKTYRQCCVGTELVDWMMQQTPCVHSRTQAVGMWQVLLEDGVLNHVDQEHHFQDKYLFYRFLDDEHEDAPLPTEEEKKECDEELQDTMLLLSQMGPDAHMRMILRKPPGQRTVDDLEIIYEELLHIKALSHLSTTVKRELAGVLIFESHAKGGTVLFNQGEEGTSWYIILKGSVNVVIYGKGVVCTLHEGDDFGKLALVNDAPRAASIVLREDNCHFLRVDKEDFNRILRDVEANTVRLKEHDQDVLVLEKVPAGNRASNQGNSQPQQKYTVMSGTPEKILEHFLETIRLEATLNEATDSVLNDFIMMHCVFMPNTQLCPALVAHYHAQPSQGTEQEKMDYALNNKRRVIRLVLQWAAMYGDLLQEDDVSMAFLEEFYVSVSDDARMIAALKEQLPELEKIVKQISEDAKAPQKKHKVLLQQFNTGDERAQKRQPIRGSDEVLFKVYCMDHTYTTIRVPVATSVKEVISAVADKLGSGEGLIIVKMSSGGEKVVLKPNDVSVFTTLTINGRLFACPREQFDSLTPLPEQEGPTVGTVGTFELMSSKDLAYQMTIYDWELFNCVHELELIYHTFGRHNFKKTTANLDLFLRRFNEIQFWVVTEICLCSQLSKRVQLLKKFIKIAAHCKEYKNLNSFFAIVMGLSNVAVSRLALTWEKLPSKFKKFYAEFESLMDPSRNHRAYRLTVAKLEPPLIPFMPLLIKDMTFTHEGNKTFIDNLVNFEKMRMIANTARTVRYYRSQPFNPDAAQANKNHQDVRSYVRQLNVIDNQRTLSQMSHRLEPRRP

activation, inactive:
O=c1c2ccccc2oc2ccccc12 -4.37%
COc1ccc(-c2nc3cnc(OCc4ccccc4)nc3n(CCC#N)c2=O)cc1 -4.89%
COC(=O)[C@@H]1CCCN1C(=O)c1c(OC)cc(=O)n2c1CCN(Cc1ccc3nsnc3c1)CC2 -3.69%
NC12CC3CC(CC(C3)C1)C2 4.48% [middle of 4 runs]
Cc1noc(C)c1C(=O)N1CCC2(CC1)CCN(c1ccncc1)CC2 -10.4%
CCCN1CCC(=O)N([C@H](COc2ccccc2)CC(C)C)CC1 -15.9%
CC(C)(C)C(=O)NCCCC(=O)O -13.6%
O=c1c(-c2cccs2)nc2cnc(Oc3cccc(Cl)c3)nc2n1C[C@H]1CCCO1 1.05%
FC(F)(F)c1ccccc1-c1ccc2ncnc(NC3CCNCC3)c2c1 -6.51%
N#C/C(=C\c1ccc(O)c(O)c1)C(=O)c1ccc(O)c(O)c1 -34.3%
CC1CCC(C(C)[C@H]2CCC3C4CC(=O)C5C[C@@H](O)CC[C@]5(C)C4CC[C@@]32C)=NC1 (stereo not given in full) 7.9%
NCC(=O)O -10.7%
Cc1c(CN2CCOc3c(cc(-c4ncc(C(F)(F)F)cc4Cl)cc3OCC3CCCO3)C2)cnn1C (stereo not given) -8.06%
COCC(=O)N1CCC[C@@]2(CCN(Cc3ccccc3)C2)C1 0.21%
CC1(C)CCC[C@@]2(C)C1CC[C@@](C)(O)[C@@H]2CC[C@@](C)(O)C1CO1 (stereo not given in full) -55.1%
Cc1ccc(-c2ncc(Cl)cc2-c2ccc(S(C)(=O)=O)cc2)cn1 -14.9%
O=c1c(O)c(-c2ccc(O)cc2)oc2ccc(O)cc12 -3.15%
CNCC(=O)NCC(=O)N[C@@H](Cc1ccccc1)C(=O)N[C@@H](CC(C)C)C(=O)O (H-[Sar]GFL-OH) 8.14%
Cc1cc(C(=O)NCc2nnc3n2CCN(Cc2ccc4c(c2)Cc2ccccc2-4)CC3)c(C)o1 -35.7%
CC(C)[C@@H]1CC[C@@H](C)C[C@@H]1P(=O)(c1ccccc1)c1ccccc1 -31.3%
CC(C)C(N)C(=O)NC(Cc1c[nH]c2ccccc12)C(=O)O (stereo not given) -10.2%
COc1ccc2[nH]cc(CCNc3nc(-c4cccc(C#N)c4)nc4ccccc34)c2c1 14.5%
COc1ccc(SC[C@H](C)CN2CC[C@H](O)CCC2=O)cc1 -18.8%
Cn1cccc1C(=O)N1CCC2(CC1)CCN(c1ccccn1)CC2 -20.6%
CC1CCc2c(N3CCC(O)CC3)c(F)cc3c(=O)c(C(=O)O)cn1c23 (stereo not given) 3.8%

From PubChem BioAssay AID1645887 (National Center for Advancing Translational Sciences (NCATS), 2021)
